Test results reported in PubChem BioAssay AID1508624 (National Center for Advancing Translational Sciences (NCATS), 2021).
The campaign covered roughly 48,000 compounds. About 120 (0.25%) were called active. About 4% were inconclusive and are not listed. Calls come from the whole dose curve; as a rule, active = well fitted activation curve with a large enough effect; inconclusive = small, poorly fitted or top-dose-only effect, or another doubt; inactive = no such curve, though single readings can be large or run the other way. This is one part of the list.

Test: Primary qHTS for Identification of Small Molecule Activators of Huntingtin-Antisense Promoter Activity; note: nearly all actives have a fitted effect of over 55% in size
Conditions: HEK293 HTT-AS promoter firefly luciferase reporter (activity 0% = vehicle and -100% = no light), 24 h; series mostly up to 57.5 µM; activity change, positive = activation: at the top concentration
Summary of the method: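 HEK293 Fluc reporter, 2,500 cells/well, 24 h pre-culture; cpds up to 57.5 uM final, 24 h 37 degrees C; Dual-Glo, 10 min RT; normalized vehicle = 0%, zero RLU = -100%.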

Row | Structure (SMILES) | activity change, positive = activation
1 | Cc1nc2c(-c3ccc(F)cc3)c(C)nn2c(C)c1CCC(=O)NCc1ccc(F)cc1 | inactive: -10.9%
2 | COc1ccc(OCCCn2c(C3CC(=O)N(c4ccc(F)cc4)C3)nc3ccccc32)cc1 (stereo unspecified) | inactive: -26.7%
3 | CCOC(=O)c1c(C)[nH]c(CCC(=O)NCc2ccc(OC)cc2OC)c1C | inactive: -19.3%
4 | COc1ccc(NC(=O)c2cc3c(=O)n(Cc4cccs4)ccc3nc2C)cc1 | inactive: -11.1%
5 | COc1ccc(-n2c(C)nnc2SCc2nc(-c3ccc(OC)c(OC)c3)no2)cc1 | inactive: -17.4%
6 | COc1ccc(OC)c(NC(=O)Cn2c(=O)n(-c3cccc(C)c3)c(=O)c3c2c2cc(C)ccc2n3C)c1 | inactive: -14.8%
7 | CCOC(=O)c1c(C)oc2nc(C)nc(N3CCN(c4cc(Cl)ccc4C)CC3)c12 | inactive: -29.8%
8 | CCOC(=O)c1cc(OC(=O)c2cc(OC)c(OC)c(OC)c2)n(-c2ccccc2)n1 | inactive: -16.3%
9 | CCOc1ccc(-n2c(SCC(=O)Nc3cc(C)on3)nc3c([nH]c4ccccc43)c2=O)cc1 | inactive: -33.9%
10 | CCc1ccccc1N(C)C(=O)Cn1cnc2sc(C)c(S(=O)(=O)N3CCC(C)CC3)c2c1=O | inactive: 15.3%
11 | COc1cccc(CNC(=O)CCCn2nc(C)c3sc4ccccc4c3c2=O)c1 | inactive: -1.77%
12 | CCn1c(C(=O)Nc2c(C)cccc2C)cc2sc(Cl)cc21 | inactive: -11.6%
13 | COc1cccc(NC(=O)N(Cc2c[nH]c3ccccc23)C2CCCCCC2)c1 | inactive: -13%
14 | CN(C(=O)c1cc2c(Cl)nc3ccccc3c2s1)c1cccc(C(F)(F)F)c1 | inactive: -17.5%
15 | O=C(Cn1nc(-c2ccccc2)c2c(c1=O)CCCC2)Nc1ccc(F)c(Cl)c1 | inactive: -28.9%
16 | COc1cccc(-c2noc(COc3ccc(C(C)(C)C)cc3)n2)c1 | inactive: 23.8%
17 | Cc1ccccc1NS(=O)(=O)c1ccc2[nH]cc(C(=O)NC3CCCCC3)c(=O)c2c1 | inactive: -32.9%
18 | Cc1ccc(NC(=O)c2oc3ccc(S(=O)(=O)N4CCCCCC4)cc3c2C)c(C)c1 | inactive: 0%
19 | CCn1c(=O)c2cc(C(=O)NC3CCC(C)CC3)sc2c2ccccc21 (stereo unspecified) | inactive: -16.4%
20 | Cc1ccc(CCNC(=O)CN(c2cc(C)cc(C)c2)S(=O)(=O)c2c(C)noc2C)cc1 | inactive: -15.7%
21 | COc1ccccc1CNC(=O)CCCn1c(=O)c2ccccc2n(Cc2ccc(F)cc2)c1=O | inactive: -32.2%
22 | COc1ccccc1Nc1nc(-c2ccc(F)cc2)c2c(n1)-c1ccccc1OC2 | inactive: -6.13%
23 | COc1ccccc1NC(=O)c1c(C)cc(C)nc1SCC(=O)Nc1ccc(C)c(C)c1 | inactive: -28.8%
24 | COc1cccc(-n2ccn(CC(=O)NCc3ccc(C)cc3)c(=O)c2=O)c1 | inactive: -4.99%
25 | Cc1cc(C)c(NS(=O)(=O)c2ccc3c(c2)CC(C)N3C(=O)C2CCC2)c(C)c1 (stereo unspecified) | inactive: -33.4%
26 | CCOc1ccc(C2CC(=O)NC(NC(=O)c3cccc(Cl)c3)=N2)cc1 (stereo unspecified) | inactive: -7.91%
